# Assay results published in PMC4336329 (PLoS ONE, 2015).
# In all, about 310,000 compounds went through this assay and about 14,000 (4.5%) showed an effect of 50% or more. The effect is printed as a negative number. Some of the results follow.
# Biological target: human ether-à-go-go-related gene (hERG) potassium channel (human, UniProt Q12809)
# Test: primary screen, population patch clamp on CHO cells stably expressing hERG
# 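Also: peak tail current of the secondary pulse compared with the same well before compound.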
# Sequence of human ether-à-go-go-related gene (hERG) potassium channel (Q12809 whole entry, looked up): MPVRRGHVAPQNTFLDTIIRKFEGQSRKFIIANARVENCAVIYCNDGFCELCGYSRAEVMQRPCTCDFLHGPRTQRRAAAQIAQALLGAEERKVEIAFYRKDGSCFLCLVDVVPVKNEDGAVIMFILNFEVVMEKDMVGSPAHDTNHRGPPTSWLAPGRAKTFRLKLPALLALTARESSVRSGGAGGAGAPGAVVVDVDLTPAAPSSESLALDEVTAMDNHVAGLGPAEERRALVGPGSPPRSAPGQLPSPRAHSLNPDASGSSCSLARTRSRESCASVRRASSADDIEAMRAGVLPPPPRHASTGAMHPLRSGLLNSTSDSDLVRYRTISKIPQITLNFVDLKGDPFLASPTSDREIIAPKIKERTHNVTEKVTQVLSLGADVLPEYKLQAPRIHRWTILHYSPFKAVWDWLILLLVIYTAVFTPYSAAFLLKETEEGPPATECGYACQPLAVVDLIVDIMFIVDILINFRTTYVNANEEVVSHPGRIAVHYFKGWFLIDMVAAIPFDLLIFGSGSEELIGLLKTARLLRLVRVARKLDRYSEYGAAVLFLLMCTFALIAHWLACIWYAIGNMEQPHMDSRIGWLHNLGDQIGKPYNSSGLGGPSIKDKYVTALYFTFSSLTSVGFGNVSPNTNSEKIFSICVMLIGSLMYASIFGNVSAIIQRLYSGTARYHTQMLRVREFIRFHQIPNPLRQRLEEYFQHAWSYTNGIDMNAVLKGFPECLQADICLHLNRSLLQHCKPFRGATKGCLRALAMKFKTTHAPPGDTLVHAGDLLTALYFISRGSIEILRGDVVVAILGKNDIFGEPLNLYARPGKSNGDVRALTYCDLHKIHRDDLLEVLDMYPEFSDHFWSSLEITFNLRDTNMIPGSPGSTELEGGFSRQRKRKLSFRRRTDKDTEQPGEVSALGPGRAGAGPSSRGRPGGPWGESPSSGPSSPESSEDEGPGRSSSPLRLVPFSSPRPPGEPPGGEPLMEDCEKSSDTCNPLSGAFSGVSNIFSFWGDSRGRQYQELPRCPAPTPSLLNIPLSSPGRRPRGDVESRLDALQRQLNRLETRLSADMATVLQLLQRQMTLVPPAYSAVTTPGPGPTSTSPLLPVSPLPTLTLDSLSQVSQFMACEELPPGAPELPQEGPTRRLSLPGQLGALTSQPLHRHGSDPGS
row,SMILES,"hERG current change (%, negative = inhibition) at 10uM [%]"
1,CCc1ccccc1-n1ncc(C(=O)Nc2ccccc2OC)c1C,3.49
2,O=C(CSc1nc2ccsc2c(=O)n1CC1CCC(C(=O)O)CC1)c1ccc(F)cc1 (centres unmarked),15.5
3,Cc1ccc(-c2cc(C(=O)N3CCCC3)no2)cc1,0.529
4,CC(=O)C1=C(C)Nc2ncnn2C1c1ccc(C)cc1 (centres unmarked),10.5
5,O=C(CSc1nc2ccccc2s1)NNC(=S)Nc1ccc(Cl)cc1,6.79
6,CN=C1S/C(=C\c2cccn2-c2cccc(Br)c2)C(=O)N1C,5.78
7,Cc1cccc(N(CC(=O)NC2CCCCC2)C(=O)CCCC(=O)Nc2ccccn2)c1,2.93
8,CC1CCCC(C)N1C(=O)C1CCCCC1 (centres unmarked),5.23
9,CCN(CC)S(=O)(=O)c1ccc2c(c1)oc(=O)n2CC(=O)N(C)C1CCCCC1,-11.9
10,O=C(CSc1nccn1Cc1ccco1)Nc1cccc(F)c1,-1.57
11,C[C@@H](NC(=O)C1(c2ccccc2)CCN(C(=O)OC(C)(C)C)CC1)C(=O)N[C@@H](Cc1ccccc1)C(=O)O,-2.07
12,CNC(=O)Cn1ncc2c3ccccc3n(C)c2c1=O,12.4
13,c1ccc(N2CCN(Cc3cnc(N4CCOCC4)s3)CC2)cc1,29.4
14,COc1cc(C(=O)Nc2nnc(C)s2)cc(OC)c1OC,-0.457
15,COc1ccc(/C=C2\C(=O)NC(=O)N(CCC3=CCCCC3)C2=O)c(OC)c1,24.6
16,O=C(Nc1cc(C(=O)N2CCOCC2)ccc1N1CCCC1)c1cccs1,-75.9
17,CCN1CCN(CCNC(=O)Nc2ccc([N+](=O)[O-])cc2)CC1,-12.2
18,c1ccc(CSc2ccc(-c3cccs3)nn2)cc1,15.5
19,O=C(NCc1nnc(SCC(=O)N2CCCCCC2)o1)c1ccccc1F,6.82
20,CCOC(=O)c1[nH]c2ccc(OC)cc2c1NC(=O)OC,7.46
21,O=C(COC(=O)c1ccc(S(=O)(=O)NCc2ccco2)cc1)NC1CCCCC1,-1.72
22,COc1ccc(NS(=O)(=O)c2cccc(C(=O)NNC(=O)c3cccn3C)c2)cc1,8.16
23,Cc1ccc(-n2c(N)cc(=O)nc2SCC(=O)N2CCN(c3ccccc3)CC2)cc1,-0.877

row,SMILES,"hERG current change (%, negative = inhibition) at 10uM [%]"
1,CCCN(CCC)CCNC(=O)C1CCN(S(=O)(=O)c2cccc3nsnc23)CC1,-13.4
2,O=C(COC(=O)CN1C(=O)c2ccccc2C1=O)NC1CCCCC1,4.62
3,Cc1nnsc1SCCNC(=O)Nc1ccc(Cl)cc1,-1.58
4,CCOCCCNC(=O)Cn1cc2c(n1)CCCC2,4.46
5,COc1cccc(CN2CCN(CC#Cc3ccccc3)CC2CCO)c1 (centres unmarked),-30.6
6,Cc1ccc(Oc2nnc(-c3ccccc3)cc2C#N)cc1,-11.8
7,CC(C)(C)c1nc(SCC(=O)Nc2ccc3c(c2)OCCO3)c2ccccc2n1,-13.7
8,C/C(O)=C(\C#N)c1nnc2n1CCCCC2,3.51
9,COc1ccc(CN2CCNC(=O)C2CC(=O)NCCc2nc(C)c(C)s2)cc1C (centres unmarked),1.75
10,O=C(c1ccc(NC(=S)Nc2ccc(F)cc2F)cc1)N1CCOCC1,6.43
11,O=C(CSc1n[nH]c(=O)n1Cc1ccco1)c1ccc(F)cc1,1.67
12,CC1Sc2ccc(S(=O)(=O)N3CCN(c4cccc(Cl)c4)CC3)cc2NC1=O (centres unmarked),9.32
13,Cc1ccc(C)c(OCC(O)CN2CCc3ccccc3C2)c1C.Cl (centres unmarked),-65.3
14,c1coc(CNc2c3c(nc4ncnn24)CCC3)c1,-29.6
15,Cc1ccc(OCC(=O)Nc2ccc(C(N)=O)cc2)cc1,16.5
16,CC(=O)N/N=C(\C)c1cccc(C(F)(F)F)c1,9.13
17,COc1ccc(OCCOC(=O)Nc2ccccc2)cc1,-2.72
18,O=C(CN1CCCCC1)Nc1ccc(N2CCCCCC2)cc1.O=C(O)C(=O)O,-88.7
19,O=C(O)C[C@H]1c2cc(F)ccc2S(=O)(=O)N1Cc1ccccc1,1.81
20,O=c1[nH]c(C2CC2)nc2sc3c(c12)CCCC3,15.8
21,O=C(N/N=C/C=C/c1cccc([N+](=O)[O-])c1)c1ccncc1,-24
22,Cc1cc(C)n(CC(=O)NNC(=O)CCCOc2ccc(Cl)cc2C)n1,8.14
23,N#C/C(=C\c1c(N2CCC(C(N)=O)CC2)nc2ccccn2c1=O)S(=O)(=O)c1ccccc1,-4.45

row,SMILES,"hERG current change (%, negative = inhibition) at 10uM [%]"
1,CCN(CC)c1cc(C)c2cc(NC(=O)c3cccs3)ccc2n1,-72.2
2,COc1ccc(OC)c(S(=O)(=O)N2CCCC(C(=O)N3CCC(C(N)=O)CC3)C2)c1 (centres unmarked),-1.95
3,NC(=O)N/N=C\c1cccs1,7.36
4,COc1ccc(-n2nc(C(=O)NCC(=O)N3CCN(Cc4ccccc4)CC3)c3ccccc3c2=O)cc1OC,13.9
5,CS(=O)(=O)N1CCC(C(=O)Nc2ccccc2F)CC1,10.3
6,CC(C(=O)NC(=O)NC1CCCCC1)N1CCN(C(c2ccccc2)c2ccccc2)CC1 (centres unmarked),-2.11
7,NNC(=O)c1ccccc1OCc1ccccc1,-7.5
8,Cc1ccccc1-n1c(SCC(=O)N2CCOCC2)nc(O)c(Cc2ccccc2)c1=O,12.9
9,O=C(/C=C/c1cccc([N+](=O)[O-])c1)NCCc1ccc(F)cc1,-21.8
10,Cc1c(NS(=O)(=O)c2ccc(Br)s2)c(=O)n(-c2ccccc2)n1C,-1.13
11,COc1ccc2nc(SCC(=O)Nc3ccc(S(=O)(=O)Nc4nccc(C)n4)cc3)[nH]c2c1,-1
12,Cc1cc(C(=O)N2CCN(c3ccc([N+](=O)[O-])cc3)CC2)n[nH]1,-78.5
13,CCCCn1c(NC(=O)c2ccco2)c(C(=O)OCC)c2nc3ccccc3nc21,-42.1
14,CCCCn1c(CCNC(=O)c2ccco2)nc2ccccc21,-22.9
15,CCC(C(=O)OCc1csc(CC(=O)Nc2ccccc2C)n1)c1ccccc1 (centres unmarked),-6.51
16,c1nc(N2CCCC2)c2[nH]cnc2n1,-3.15
17,COc1ccc(NC(=O)c2ccc(C#CC(C)(C)O)cc2)cc1,-5.36
18,COc1ccc(/C=C/C(=O)OCC(=O)NCc2cccs2)cc1OC,-12.4
19,CCOC(=O)c1cc2sccc2n1CC(=O)N1CCCc2ccccc21,-6.42
20,COc1ccc2c(Cl)c(C(=O)NCCc3ccc(S(N)(=O)=O)cc3)sc2c1,13
21,CC(C)(C)c1ccc(C(=O)N2CCN(CCNC(=O)C(=O)Nc3ccc(F)cc3)CC2)cc1,-52.5
22,Cc1oc2c(c1C(=O)NCc1cccnc1)C(=O)c1ccccc1C2=O,-47
23,CNC(=O)CSc1nnc(-c2ccco2)n1-c1ccc(C)cc1,-49.5

row,SMILES,"hERG current change (%, negative = inhibition) at 10uM [%]"
1,CC1CCN(C(=O)CN2c3cccc4cccc(c34)S2(=O)=O)CC1,-6.45
2,CC(=O)c1ccc(NC(=O)C[n+]2ccccc2)cc1.[Cl-],1.92
3,CC(=O)Nc1cccc(NC(=S)Nc2cccc(Cl)c2C)c1,1.46
4,CN(Cc1c(F)cccc1Cl)C(=O)c1ccc(NC(=O)CC2SC(N3CCCC3)=NC2=O)cc1 (centres unmarked),-18.7
5,Cc1cc(Cl)c(S(=O)(=O)Nc2ccc3c(c2)OCO3)cc1OCC(N)=O,-14.4
6,CC(C)(C)NCC(O)COc1c(F)cc(Br)cc1F.Cl (centres unmarked),-7.38
7,O=C(Nn1cnnc1)c1cc(Cl)ccc1Cl,20.9
8,COc1cccc(/C=N/Nc2ccc(S(=O)(=O)[O-])cc2)c1O.[K+],3.33
9,O=C(Nc1ccc2nc3ccccc3nc2c1)c1ccc(Br)cc1,17.9
10,CCCCOc1ccc(C(=O)NCc2ccccn2)cc1,-14.1
11,CCC(Sc1nc(-c2cccc(OC)c2)c(C#N)c(=O)[nH]1)C(=O)Nc1nnc(C(C)C)s1 (centres unmarked),26.4
12,O=C(CCc1[nH]c2ccccc2c1Sc1ccccc1)NCCO,-29.5
13,CCCCCC1CC(CC(=O)Nc2ccc([N+](=O)[O-])cc2)C(=O)O1 (centres unmarked),-50
14,COc1ccc(NS(=O)(=O)c2ccc(OC)c3ccccc23)cn1,-23.9
15,CC(NC(=O)c1ccc(NC(=O)c2ccco2)cc1)c1ccccc1 (centres unmarked),14.8
16,CCCc1[nH]n(-c2ccc([N+](=O)[O-])cc2)c(=O)c1C(C)=NCc1ccncc1,-52.4
17,COc1cc(C(=O)N/N=C\c2ccccc2)c([N+](=O)[O-])c(OC)c1OC,-9.89
18,Cc1nc2ccccc2nc1NS(=O)(=O)c1ccc(N)cc1,24.2
19,CCn1c(CCCNC(=O)c2ccc(F)cc2)nc2ccccc21,-41.3
20,COc1ccc(/C=C(\NC(=O)c2ccc(C)cc2)C(=O)Nc2ccc(C(=O)O)cc2)cc1,13.8
